Data on seven molecules can be found in US20250382386A1 (KINTOR PHARMACEUTICAL GUANGDONG, published 2025).

First the molecules themselves.
B1: BEV813-1 (bispecific antibody, human IgG1, kappa)
heavy: EVQLVESGGGLVQPGGSLRLSCAASGYTFTNYGMNWVRQAPGKGLEWVGWINTYTGEPTYAADFKRRFTFSLDTSKSTAYLQMNSLRAEDTAVYYCAKYPHYYGSSHWYFDVWGQGTLVTVSSASTKGPSVFPLAPSSKSTSGGTAALGCLVKDYFPEPVTVSWNSGALTSGVHTFPAVLQSSGLYSLSSVVTVPSSSLGTQTYICNVNHKPSNTKVDKKV[here human IgG1 Fc with changes without letters]GGGGSGGGGSGGGGSGGGGSQVQLQESGPGLVKPSQTLSLTCTVSGGSISSGEYYWNWIRQHPGCGLEWIGYIYYSGSTYYNPSLKSRVTISVDTSKNQFSLKLSSVTAADTAVYYCARESVAGFDYWGQGTLVTVSSGGGGSGGGGSGGGGSGGGGSEIVLTQSPGTLSLSPGERATLSCRASQSVSSSYLAWYQQKPGQAPRLLIYGTSSRATGIPDRFSGSGSGTDFTLTISRLEPEDFAVYYCQAYGSWPITFGCGTRLEIK
light: DIQMTQSPSSLSASVGDRVTITCSASQDISNYLNWYQQKPGKAPKVLIYFTSSLHSGVPSRFSGSGSGTDFTLTISSLQPEDFATYYCQQYSTVPWTFGQGTKVEIKRTVAAPSVFIFPPSDEQLKSGTASVVCLLNNFYPREAKVQWKVDNALQSGNSQESVTEQDSKDSTYSLSSTLTLSKADYEKHKVYACEVTHQGLSSPVTKSFNRGEC
notes: also called BEV813-1 mutant
B2: BEV813-5 (bispecific antibody, human IgG1, kappa)
heavy: EVQLVESGGGLVQPGGSLRLSCAASGYTFTNYGMNWVRQAPGKGLEWVGWINTYTGEPTYAADFKRRFTFSLDTSKSTAYLQMNSLRAEDTAVYYCAKYPHYYGSSHWYFDVWGQGTLVTVSSASTKGPSVFPLAPSSKSTSGGTAALGCLVKDYFPEPVTVSWNSGALTSGVHTFPAVLQSSGLYSLSSVVTVPSSSLGTQTYICNVNHKPSNTKVDKKV[here human IgG1 Fc with changes without letters]GGGGSGGGGSGGGGSGGGGSQVQLQESGPGLVKPSQTLSLTCTVSGGSISSGEYYWNWIRQHPGKGLEWIGYIYYSGSTYYNPSLKSRVTISVDTSKNQFSLKLSSVTAADTAVYYCARESVAGFDYWGCGTLVTVSSGGGGSGGGGSGGGGSGGGGSEIVLTQSPGTLSLSPGERATLSCRASQSVSSSYLAWYQQKPGQCPRLLIYGTSSRATGIPDRFSGSGSGTDFTLTISRLEPEDFAVYYCQAYGSWPITFGQGTRLEIK
light: DIQMTQSPSSLSASVGDRVTITCSASQDISNYLNWYQQKPGKAPKVLIYFTSSLHSGVPSRFSGSGSGTDFTLTISSLQPEDFATYYCQQYSTVPWTFGQGTKVEIKRTVAAPSVFIFPPSDEQLKSGTASVVCLLNNFYPREAKVQWKVDNALQSGNSQESVTEQDSKDSTYSLSSTLTLSKADYEKHKVYACEVTHQGLSSPVTKSFNRGEC
B3: BEV813-6 (bispecific antibody, human IgG1, kappa)
heavy: EVQLVESGGGLVQPGGSLRLSCAASGYTFTNYGMNWVRQAPGKGLEWVGWINTYTGEPTYAADFKRRFTFSLDTSKSTAYLQMNSLRAEDTAVYYCAKYPHYYGSSHWYFDVWGQGTLVTVSSASTKGPSVFPLAPSSKSTSGGTAALGCLVKDYFPEPVTVSWNSGALTSGVHTFPAVLQSSGLYSLSSVVTVPSSSLGTQTYICNVNHKPSNTKVDKKV[here human IgG1 Fc with changes without letters]GGGGSGGGGSGGGGSGGGGSQVQLQESGPGLVKPSQTLSLTCTVSGGSISSGEYYWNWIRQHPGKGLEWIGYIYYSGSTYYNPSLKSRVTISVDTSKNQFSLKLSSVTAADTAVYYCARESVAGFDYWGCGTLVTVSSGGGGSGGGGSGGGGSGGGGSEIVLTQSPGTLSLSPGERATLSCRASQSVSSSYLAWYQQKPGCAPRLLIYGTSSRATGIPDRFSGSGSGTDFTLTISRLEPEDFAVYYCQAYGSWPITFGQGTRLEIK
light: DIQMTQSPSSLSASVGDRVTITCSASQDISNYLNWYQQKPGKAPKVLIYFTSSLHSGVPSRFSGSGSGTDFTLTISSLQPEDFATYYCQQYSTVPWTFGQGTKVEIKRTVAAPSVFIFPPSDEQLKSGTASVVCLLNNFYPREAKVQWKVDNALQSGNSQESVTEQDSKDSTYSLSSTLTLSKADYEKHKVYACEVTHQGLSSPVTKSFNRGEC
B4: BEV813-3 (bispecific antibody, human IgG1, kappa)
heavy: EVQLVESGGGLVQPGGSLRLSCAASGYTFTNYGMNWVRQAPGKGLEWVGWINTYTGEPTYAADFKRRFTFSLDTSKSTAYLQMNSLRAEDTAVYYCAKYPHYYGSSHWYFDVWGQGTLVTVSSASTKGPSVFPLAPSSKSTSGGTAALGCLVKDYFPEPVTVSWNSGALTSGVHTFPAVLQSSGLYSLSSVVTVPSSSLGTQTYICNVNHKPSNTKVDKKV[here human IgG1 Fc with changes without letters]GGGGSGGGGSGGGGSGGGGSQVQLQESGPGLVKPSQTLSLTCTVSGGSISSGEYYWNWIRQHPGKCLEWIGYIYYSGSTYYNPSLKSRVTISVDTSKNQFSLKLSSVTAADTAVYYCARESVAGFDYWGQGTLVTVSSGGGGSGGGGSGGGGSGGGGSEIVLTQSPGTLSLSPGERATLSCRASQSVSSSYLAWYQQKPGQAPRLLIYGTSSRATGIPDRFSGSGSGTDFTLTISRLEPEDFAVYYCQAYGSWPITFGQCTRLEIK
light: DIQMTQSPSSLSASVGDRVTITCSASQDISNYLNWYQQKPGKAPKVLIYFTSSLHSGVPSRFSGSGSGTDFTLTISSLQPEDFATYYCQQYSTVPWTFGQGTKVEIKRTVAAPSVFIFPPSDEQLKSGTASVVCLLNNFYPREAKVQWKVDNALQSGNSQESVTEQDSKDSTYSLSSTLTLSKADYEKHKVYACEVTHQGLSSPVTKSFNRGEC
B5: BEV813-9 (bispecific antibody, human IgG1, kappa)
heavy: EVQLVESGGGLVQPGGSLRLSCAASGYTFTNYGMNWVRQAPGKGLEWVGWINTYTGEPTYAADFKRRFTFSLDTSKSTAYLQMNSLRAEDTAVYYCAKYPHYYGSSHWYFDVWGQGTLVTVSSASTKGPSVFPLAPSSKSTSGGTAALGCLVKDYFPEPVTVSWNSGALTSGVHTFPAVLQSSGLYSLSSVVTVPSSSLGTQTYICNVNHKPSNTKVDKKV[here human IgG1 Fc with changes without letters]GGGGSGGGGSGGGGSGGGGSQVQLQESGPGLVKPSQTLSLTCTVSGGSISSGEYYWNWIRQHPGKGLEWIGYIYYSGSTYYNPSLKSRVTISVDTSKNQFSLKLSSVTAADTAVYYCARESVAGFDYCGQGTLVTVSSGGGGSGGGGSGGGGSGGGGSEIVLTQSPGTLSLSPGERATLSCRASQSVSSSYLAWYQQKPGQCPRLLIYGTSSRATGIPDRFSGSGSGTDFTLTISRLEPEDFAVYYCQAYGSWPITFGQGTRLEIK
light: DIQMTQSPSSLSASVGDRVTITCSASQDISNYLNWYQQKPGKAPKVLIYFTSSLHSGVPSRFSGSGSGTDFTLTISSLQPEDFATYYCQQYSTVPWTFGQGTKVEIKRTVAAPSVFIFPPSDEQLKSGTASVVCLLNNFYPREAKVQWKVDNALQSGNSQESVTEQDSKDSTYSLSSTLTLSKADYEKHKVYACEVTHQGLSSPVTKSFNRGEC
notes: also called mutant BEV813-9
B6: BEV813-8 (bispecific antibody, human IgG1, kappa)
heavy: EVQLVESGGGLVQPGGSLRLSCAASGYTFTNYGMNWVRQAPGKGLEWVGWINTYTGEPTYAADFKRRFTFSLDTSKSTAYLQMNSLRAEDTAVYYCAKYPHYYGSSHWYFDVWGQGTLVTVSSASTKGPSVFPLAPSSKSTSGGTAALGCLVKDYFPEPVTVSWNSGALTSGVHTFPAVLQSSGLYSLSSVVTVPSSSLGTQTYICNVNHKPSNTKVDKKV[here human IgG1 Fc with changes without letters]GGGGSGGGGSGGGGSGGGGSQVQLQESGPGLVKPSQTLSLTCTVSGGSISSGEYYWNWIRQHPGKGLEWIGYIYYSGSTYYNPSLKSRVTISVDTSKNQFSLKLSSVTAADTAVYYCARESVAGCDYWGQGTLVTVSSGGGGSGGGGSGGGGSGGGGSEIVLTQSPGTLSLSPGERATLSCRASQSVSSSYLAWYQQKPGQAPRCLIYGTSSRATGIPDRFSGSGSGTDFTLTISRLEPEDFAVYYCQAYGSWPITFGQGTRLEIK
light: DIQMTQSPSSLSASVGDRVTITCSASQDISNYLNWYQQKPGKAPKVLIYFTSSLHSGVPSRFSGSGSGTDFTLTISSLQPEDFATYYCQQYSTVPWTFGQGTKVEIKRTVAAPSVFIFPPSDEQLKSGTASVVCLLNNFYPREAKVQWKVDNALQSGNSQESVTEQDSKDSTYSLSSTLTLSKADYEKHKVYACEVTHQGLSSPVTKSFNRGEC
B7: BEV813-7 (bispecific antibody, human IgG1, kappa)
heavy: EVQLVESGGGLVQPGGSLRLSCAASGYTFTNYGMNWVRQAPGKGLEWVGWINTYTGEPTYAADFKRRFTFSLDTSKSTAYLQMNSLRAEDTAVYYCAKYPHYYGSSHWYFDVWGQGTLVTVSSASTKGPSVFPLAPSSKSTSGGTAALGCLVKDYFPEPVTVSWNSGALTSGVHTFPAVLQSSGLYSLSSVVTVPSSSLGTQTYICNVNHKPSNTKVDKKV[here human IgG1 Fc with changes without letters]GGGGSGGGGSGGGGSGGGGSQVQLQESGPGLVKPSQTLSLTCTVSGGSISSGEYYWNWIRQHPGKGLEWIGYIYYSGSTYYNPSLKSRVTISVDTSKNQFSLKLSSVTAADTAVYYCARESVAGFCYWGQGTLVTVSSGGGGSGGGGSGGGGSGGGGSEIVLTQSPGTLSLSPGERATLSCRASQSVSSSYLAWYQQKPGQAPRCLIYGTSSRATGIPDRFSGSGSGTDFTLTISRLEPEDFAVYYCQAYGSWPITFGQGTRLEIK
light: DIQMTQSPSSLSASVGDRVTITCSASQDISNYLNWYQQKPGKAPKVLIYFTSSLHSGVPSRFSGSGSGTDFTLTISSLQPEDFATYYCQQYSTVPWTFGQGTKVEIKRTVAAPSVFIFPPSDEQLKSGTASVVCLLNNFYPREAKVQWKVDNALQSGNSQESVTEQDSKDSTYSLSSTLTLSKADYEKHKVYACEVTHQGLSSPVTKSFNRGEC

The experiment concerns the target T1, Human ALK-1/ACVRL1 Protein, His Tag (Acro AL1-H5227) (human, UniProt P37023 fragment).
T1 construct: range 22-118; Bought protein; also called ALK-1/His; ALK-1-his
The experiment is described as follows: BLI (Octet RED96e), antibody on ProteinA sensor, 1:1 model. Background: In BLI a coated tip is dipped into the sample, and binding shifts an interference pattern.
As a reminder, the Kd is the concentration at which binding is half-saturated. Read a low Kd as a tighter complex. Broadly, the koff is a measure of how fast the partners let go of each other. A lower koff goes with a long-lived complex. For orientation: kon means a measure of how fast the partners come together. A low value points to slower complex formation. As for B1, binding was characterised by a dissociation constant (Kd) of 3.96 nM, the koff worked out at 0.00181 s⁻¹ and the kon amounted to 456000 M⁻¹ s⁻¹.
The molecule B2 came in with a Kd of 1.67 nM, a koff of 0.0007 s⁻¹ and a kon of 418000 M⁻¹ s⁻¹.
The molecule B3 yielded a Kd of 3.5 nM, a koff of 0.00142 s⁻¹ and a kon of 404000 M⁻¹ s⁻¹.
Take B4: binding was put at a Kd of 7.93 nM, the koff amounted to 0.00239 s⁻¹ and the kon is 301000 M⁻¹ s⁻¹.
Taken in the same sequence, the figures for B5 were 3.81 nM, 0.00245 s⁻¹ and 644000 M⁻¹ s⁻¹.
Taken in the same sequence, the figures for B6 were 2.22 nM, 0.00116 s⁻¹ and 524000 M⁻¹ s⁻¹.
On to B7, for which the Kd is 7.37 nM, the koff stood at 0.00299 s⁻¹ and the kon is 406000 M⁻¹ s⁻¹.
